Assay results taken from PubChem BioAssay AID1508623 (National Center for Advancing Translational Sciences (NCATS), 2021).
The whole screen tested about 48,000 compounds, of which about 450 (0.94%) were called active. About 19% were inconclusive and are not listed. Calls follow the shape of the dose curve; as a rule, active = well fitted inhibition curve with a large enough effect; inconclusive = small, poorly fitted or top-dose-only effect; inactive = no such curve, though single readings can be large or run the other way. This is one part of the list.

Assay: Primary qHTS for Identification of Small Molecule Inhibitors of Huntingtin Promoter Activity; also: nearly all actives have a fitted effect of over 50% in size
Settings: HEK293 HTT promoter firefly luciferase reporter (activity 0% = vehicle and -100% = no light), 24 h; series mostly up to 57.5 µM; activity change, negative = inhibition: at the top concentration
Outline: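 Firefly luciferase readout (Dual-Glo, 10 min RT) after 24 h, 37 °C compound exposure (final up to 57.5 uM) of HEK293 reporter cells cultured 24 h beforehand; PTC124 at 50 uM final as control inhibitor; activity scaled vehicle 0%, zero RLU -100%.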

Activity change, negative = inhibition, inactive:
COc1ccccc1NC(=O)c1c(NC(=O)COc2ccccc2)sc2c1CCCCC2 -9.26%, COc1ccc(CCNC(=O)Cn2c(=O)c3sccc3n(CC(=O)Nc3cccc(C(F)(F)F)c3)c2=O)cc1OC 0.558%, Cc1ccc(-c2ncc(Cl)cc2-c2ccc(S(C)(=O)=O)cc2)cn1 -11%, O=C(NCc1cccc(Cl)c1)c1cnc(N2CCCCC2)c2ccccc12 -4.35%, COC(=O)c1cccc(Nc2c(-c3ccc(SC)cc3)nc3nc[nH]n23)c1 28%, CCc1ccc(C2N=C(N)Nc3nc4ccccc4n32)cc1 (centres undefined) -7.78%, Cc1cccc(N2CCN(c3ncnc4onc(C)c34)CC2)c1C -12.7%, Cc1ccc(-n2ncc(C(=O)NCCc3ccsc3)c2C2CCN(C(=O)OC(C)(C)C)CC2)c(C)c1 -26.9%, O=C(CCCCCn1c(=O)[nH]c2ccccc2c1=O)NCCc1ccccc1 -18.3%, COC(=O)[C@@H]1[C@H]2C[C@@H]3c4[nH]c5ccccc5c4CCN3C[C@@H]2CC[C@@H]1O 1.11%, COc1ccc(Cl)cc1NC(=O)CN(c1cccc(C)c1C)S(C)(=O)=O -18.2%, Cc1cccc(S(=O)(=O)c2cn(Cc3ccc(F)cc3)c3cc(N4CCCCC4)c(F)cc3c2=O)c1 -26.8%, CCc1ccc(CNC(=O)CN2C(=O)CSc3ccc(S(=O)(=O)N4CCOCC4)cc32)cc1 1.47%, COc1cccc(C(=O)N(Cc2ccc(N(C)C)cc2)Cc2ccco2)c1 -23.4%, O=C(CSc1nc2c([nH]c3ccccc32)c(=O)n1-c1ccc(Cl)cc1)NCc1ccccc1 -18.7%, CCc1ccc(S(=O)(=O)NCc2cccn2Cc2cccc(C)c2)cc1 -13.4%, CC1=C(C(=O)Nc2cc(Cl)ccc2C)C(c2ccccc2F)n2ncnc2N1 (centres undefined) -4.91%, CN1CCN(C(CNC(=O)C(=O)Nc2ccccc2C#N)c2ccc3c(c2)OCO3)CC1 (centres undefined) -4.92%, CCn1c(=O)c(=O)n(CC)c2cc(N3CCCCC3)c(NC(=O)c3ccc(OC)c(OC)c3)cc21 20.4%, COc1cc(C(=O)Nc2sc3c(c2C(N)=O)CCC(C)C3)cc(OC)c1OC (centres undefined) 3.84%, Cc1ccc2sc(N(CCCN(C)C)C(=O)c3ccco3)nc2c1C -19.5%, COc1ccc(CCNC(=O)CSc2cc(=O)n(C)c3ccccc23)cc1OC -8.54%, CCCNC(=O)C1CCC(Cn2c(=O)c3sccc3n(CC(=O)N(CC)CC)c2=O)CC1 (centres undefined) 2.49%, COc1ccc(NC(=O)Cn2nnnc2-c2ccccc2F)c(C)c1 -4.98%, Cc1ccc(-n2nc(C(=O)N3CCCCC3)c(=O)n(C)c2=O)cc1 -2.23%, CCCN(CCC)CCNC(=O)CS(=O)Cc1nc(-c2ccc(OC)c(OC)c2)oc1C (centres undefined) -4.3%, NCC(=O)O 4.19% [at 25.2 µM], COc1ccc(CN2C(=O)N(c3cccc(C)c3)C(=O)C2CC(=O)Nc2ccc(F)cc2)cc1OC (centres undefined) -9.14%, CN(Cc1ccccc1)C(=O)C(=O)Nc1ccc2nc3n(c(=O)c2c1)CCCCC3 -8.21%, COc1ccc(-n2c(=O)c3ccc(C(=O)NCc4ccc(C)cc4)cc3n(CC(=O)Nc3cccc(F)c3)c2=O)cc1 -19.5%, Cc1ccc(CNC(=O)c2cc3cc(C)ccc3n2C)cc1 -23.1%, CNc1ccc(-c2nc(-c3ccccn3)no2)cc1[N+](=O)[O-] 50%, Cc1ccc(NC(=O)CN2C(=O)COc3ccc(S(=O)(=O)N4CCCCC4)cc32)cc1Cl -14.8%, CCOC(=O)c1cc(NC(=O)c2ccc(C)cc2)c(=O)n2c1oc1ccccc12 -7.11%, COCCCNC(=O)Cn1c(=O)n(-c2ccccc2)c(=O)c2c1c1cc(OC)ccc1n2C -14.6%, COc1ccc(Nc2ncnc3scc(-c4ccc(F)cc4)c23)cc1 -16.7%, CC(=O)Nc1ccc2nc(SCCOc3ccc(C)cc3)sc2c1 -6.44%, COc1ccc(NC(=O)c2sc3nc(C)c(C(=O)Nc4ccc(C)cc4C)c(-c4sccc4C)c3c2N)cc1 -19.2%, CC1CCc2c(N3CCC(O)CC3)c(F)cc3c(=O)c(C(=O)O)cn1c23 (centres undefined) -5.97%, CCc1c(CN2CCN(c3ccc(F)cc3)CC2)csc1C -15.5%, COc1ccc(C)cc1Nc1nc2c(S(=O)(=O)c3cc(C)ccc3C)nnn2c2ccsc12 1.62%, Cc1ccc(CN2CCC(CNC(=O)Nc3ccccc3F)CC2)cc1 -11.8%, O=C(COc1ccc(Cl)cc1)NCCc1csc(-c2ccc(C(F)(F)F)cc2)n1 -23.4%, COCCNc1nc2c(S(=O)(=O)c3ccccc3)nnn2c2ccc(Cl)cc12 -5.75%, COc1cc2c(cc1NC(=O)COc1cc(C)cc(C)c1)oc1ccccc12 -10.1%, COc1ccc(Cn2c(CCC(=O)Nc3ccc(Br)c(C)c3)nc3cccnc32)cc1 -18.4%, O=C(Cn1nnc(-c2ccc(C(F)(F)F)cc2)n1)NCCc1ccccc1 -6.36%, Cc1cc(C)cc(NS(=O)(=O)c2cc3[nH]c(=O)c(=O)[nH]c3cc2C)c1 -4.7%, COc1cc(OC)c(C(=O)NCc2nc(-c3ccccc3)no2)cc1OC -18.6%, CCCC(=O)Oc1c(Sc2ccc(C)cc2)c(C)nn1-c1ccccc1 -16.7%, CCc1ccc(CN(Cc2ccco2)c2cnc(S(C)(=O)=O)nc2C(=O)Nc2ccc(C)c(Cl)c2)cc1 -11.8%, Cc1ccc(NC(=O)CN(C)S(=O)(=O)c2cccc3cccnc23)c(C)c1 -7.12%, Cc1nn2c(=O)cc(COC(=O)c3ccc(NC(=O)CCc4ccccc4)cc3)nc2s1 13.4%, CCc1noc(-c2ccc(N3CCC(C)CC3)c([N+](=O)[O-])c2)n1 6.7%, CCC(Sc1nc2cc3c(cc2c(=O)n1CCCCCC(=O)NCc1ccc2c(c1)OCO2)OCO3)C(=O)NCCCOC (centres undefined) -11.3%, CC(C)C(=O)Nc1ccccc1C(=O)OCc1cc(=O)n2nc(C3CC3)sc2n1 -16.2%, O=C(Nc1cccc(Br)c1)Nc1nc2c(s1)CCCCCC2 -13.4%, O=C(CN1C(=O)c2cccnc2Oc2ccc(Cl)cc21)NCCCN1CCCCC1 1.96%, Cc1cccc(-c2nc3cc(NC(=O)c4ccc(OCC(C)C)cc4)ccc3o2)c1 -6.48%, Cc1ccn2c(c1)nc(=O)c1cc(S(=O)(=O)N3CCCCC3)ccc12 -14.5%, CCOc1ccc(NC(=O)NC(C)c2c(-n3cccc3)sc3c2CCN(CC)C3)cc1 (centres undefined) -16.5%, COc1cccc(CCNC(=O)c2ccc(Cn3c(SCc4ccccc4)nc4cccnc43)cc2)c1 -17.1%, O=C(Nc1ccc2nc(SCCOc3ccccc3)sc2c1)c1ccco1 -10.3%, Cc1cccn2c(=O)c3cc(C(=O)NC(C)C)n(C)c3nc12 2.12%, Cc1ccccc1NC(=O)C1CCN(C(=O)c2ccc(F)cc2)CC1 -9.77%, CCOc1ccc(NC(=O)Cn2cc(C(=O)c3ccc(F)cc3)c(=O)c3cc4c(cc32)OCO4)cc1 -2.45%, Cc1ccc(-n2nnnc2CNC(=O)c2ccc(F)cc2)cc1C 0.879%, COc1ccccc1-c1nn2c(=O)cc(CN3CCN(S(=O)(=O)c4ccc(C)cc4)CC3)nc2s1 -8.91%, Cc1cc(=O)n(-c2ccccc2)n1C 3.9%, CCOC(=O)c1ccc(NC(=O)C2Cc3ccccc3C(=O)O2)cc1 (centres undefined) 35.4%, Brc1ccc(CNCCCSc2nnnn2-c2ccccc2)cc1 1.26%, Cc1cccc(-c2noc(CNC(=O)c3ccco3)n2)c1 1.42%, CC(=O)Nc1ccc(C)cc1-c1nc2ccccc2n(CC(=O)c2ccc(Cl)cc2)c1=O -5.41%, CC(=O)N(Cc1cccnc1)c1nc2ccc(F)cc2s1 -14%, COc1cccc2cc(-c3cn4c(n3)sc3cc(F)ccc34)c(=O)oc12 -4.06%, CCOc1ccccc1C(=O)N1CCN(CCc2ccccn2)CC1 3.57%, Cc1ccc(CNC(=O)NC2COc3ccccc3C2)cc1 (centres undefined) 3.51%, Cc1ccc(C2=Nc3ccccc3N(CC(=O)Nc3ccccc3C)C(=O)C2)cc1C 61.9%, Cc1c(Cl)cccc1NC(=O)Cn1nc(C(F)(F)F)c2c1CCC2 -18.4%, Cc1cc(C)c(NC(=O)Cn2c(=O)n(CCc3ccccc3)c(=O)c3ccccc32)c(C)c1 -0.66%, Cc1ccc(N2CCn3c2nc2c3c(=O)n(CCCc3ccccc3)c(=O)n2C)cc1 -5.02%, Clc1ccc(COC(Cn2ccnc2)c2ccc(Cl)cc2Cl)c(Cl)c1 (centres undefined) -20.9%, COc1ccc(OC)c(CNC(=O)c2ccccc2NC(=O)c2nsc3ccccc23)c1 2.65%, Cc1cc(C)n(-c2nc3ccccc3nc2Nc2cccc(C(=O)NCCc3ccccc3)c2)n1 -5.79%, Cc1ccc(NC(=O)C2CCCN(S(=O)(=O)c3cccc4cccnc34)C2)c(Br)c1 (centres undefined) -27.8%, CC1=C(C(=O)Nc2ccccc2)C(c2cccc(O)c2)n2nc(-c3ccccc3Cl)nc2N1 (centres undefined) -9.72%, Cc1onc(-c2ccccc2Cl)c1C(=O)Oc1ccc(Br)cc1 -9.23%, C#CCn1c(/C=C/c2ccc(Cl)cc2)nc2ccccc21 14.3%, CCN(c1ccc(OC)cc1)S(=O)(=O)c1nnc(NC(=O)COc2ccc(F)cc2)s1 -20.5%, CC(C)CC(=O)NCC(c1ccc2c(c1)OCO2)N1CCN(c2ccccc2F)CC1 (centres undefined) -12.2%, Cc1ccccc1N(C)C(=O)c1noc2c1COc1ccccc1-2 39.5%, CCCN(CCc1cccs1)[C@H]1CCc2c(O)cccc2C1 3.98%, O=C(CCn1c(=O)c2cccn2c2cccnc21)NCc1ccccc1Br 6.14%, CCC(=O)Nc1ccc(C)cc1-c1nc2ccccc2n(C(C)C(=O)Nc2ccccc2CC)c1=O (centres undefined) -22.7%, CCC(CC)C(=O)Nc1ccc(C(=O)OCc2cc(=O)n3nc(C4CC4)sc3n2)cc1 -4.88%, Cc1ccc(-n2nc(C(=O)N3CCN(c4ccccc4F)CC3)c3c4ccccc4n(C)c3c2=O)cc1 -7.57%, O=C(NCc1ccccc1Cl)c1cccn1-c1nnc(N2CCCCC2)s1 -26.1%, CCC(C(=O)N1CCN(c2cc(Cl)ccc2C)CC1)n1nc(C)c2sc3ccccc3c2c1=O (centres undefined) -0.226%, CCN(CC)CCCNC(=O)CCCn1c(=O)[nH]c2ccc(Br)cc2c1=O -4.61%
